The list shows a part of the results. Binding of human transcription factors and regulators to the viral nucleoprotein by AlphaScreen, crude cell-free proteins, amounts not normalised, one pass. Fold of the Venus control; higher = more signal. No active / inactive call. Single-pass screen; sequences are the whole Swiss-Prot entries looked up by name.
B1: CUX2, O14529 (protein)
chain: MAANVGSMFQYWKRFDLRRLQKELNSVASELSARQEESEHSHKHLIELRREFKKNVPEEIREMVAPVLKSFQAEVVALSKRSQEAEAAFLSVYKQLIEAPDPVPVFEAARSLDDRLQPPSFDPSGQPRRDLHTSWKRNPELLSPKEQREGTSPAGPTLTEGSRLPGIPGKALLTETLLQRNEAEKQKGLQEVQITLAARLGEAEEKIKVLHSALKATQAELLELRRKYDEEAASKADEVGLIMTNLEKANQRAEAAQREVESLREQLASVNSSIRLACCSPQGPSGDKVNFTLCSGPRLEAALASKDREILRLLKDVQHLQSSLQELEEASANQIADLERQLTAKSEAIEKLEEKLQAQSDYEEIKTELSILKAMKLASSTCSLPQGMAKPEDSLLIAKEAFFPTQKFLLEKPSLLASPEEDPSEDDSIKDSLGTEQSYPSPQQLPPPPGPEDPLSPSPGQPLLGPSLGPDGTRTFSLSPFPSLASGERLMMPPAAFKGEAGGLLVFPPAFYGAKPPTAPATPAPGPEPLGGPEPADGGGGGAAGPGAEEEQLDTAEIAFQVKEQLLKHNIGQRVFGHYVLGLSQGSVSEILARPKPWRKLTVKGKEPFIKMKQFLSDEQNVLALRTIQVRQRGSITPRIRTPETGSDDAIKSILEQAKKEIESQKGGEPKTSVAPLSIANGTTPASTSEDAIKSILEQARREMQAQQQALLEMEVAPRGRSVPPSPPERPSLATASQNGAPALVKQEEGSGGPAQAPLPVLSPAAFVQSIIRKVKSEIGDAGYFDHHWASDRGLLSRPYASVSPSLSSSSSSGYSGQPNGRAWPRGDEAPVPPEDEAAAGAEDEPPRTGELKAEGATAEAGARLPYYPAYVPRTLKPTVPPLTPEQYELYMYREVDTLELTRQVKEKLAKNGICQRIFGEKVLGLSQGSVSDMLSRPKPWSKLTQKGREPFIRMQLWLSDQLGQAVGQQPGASQASPTEPRSSPSPPPSPTEPEKSSQEPLSLSLESSKENQQPEGRSSSSLSGKMYSGSQAPGGIQEIVAMSPELDTYSITKRVKEVLTDNNLGQRLFGESILGLTQGSVSDLLSRPKPWHKLSLKGREPFVRMQLWLNDPHNVEKLRDMKKLEKKAYLKRRYGLISTGSDSESPATRSECPSPCLQPQDLSLLQIKKPRVVLAPEEKEALRKAYQLEPYPSQQTIELLSFQLNLKTNTVINWFHNYRSRMRREMLVEGTQDEPDLDPSGGPGILPPGHSHPDPTPQSPDSETEDQKPTVKELELQEGPEENSTPLTTQDKAQVRIKQEQMEEDAEEEAGSQPQDSGELDKGQGPPKEEHPDPPGNDGLPKVAPGPLLPGGSTPDCPSLHPQQESEAGERLHPDPLSFKSASESSRCSLEVSLNSPSAASSPGLMMSVSPVPSSSAPISPSPPGAPPAKVPSASPTADMAGALHPSAKVNPNLQRRHEKMANLNNIIYRVERAANREEALEWEF
B2: S100A9, P06702 (protein)
chain: MTCKMSQLERNIETIINTFHQYSVKLGHPDTLNQGEFKELVRKDLQNFLKKENKNEKVIEHIMEDLDTNADKQLSFEEFIMLMARLTWASHEKMHEGDEGPGHHHKPGLGEGTP
B3: TBX3, O15119 (protein)
chain: MSLSMRDPVIPGTSMAYHPFLPHRAPDFAMSAVLGHQPPFFPALTLPPNGAAALSLPGALAKPIMDQLVGAAETGIPFSSLGPQAHLRPLKTMEPEEEVEDDPKVHLEAKELWDQFHKRGTEMVITKSGRRMFPPFKVRCSGLDKKAKYILLMDIIAADDCRYKFHNSRWMVAGKADPEMPKRMYIHPDSPATGEQWMSKVVTFHKLKLTNNISDKHGFTLAFPSDHATWQGNYSFGTQTILNSMHKYQPRFHIVRANDILKLPYSTFRTYLFPETEFIAVTAYQNDKITQLKIDNNPFAKGFRDTGNGRREKRKQLTLQSMRVFDERHKKENGTSDESSSEQAAFNCFAQASSPAASTVGTSNLKDLCPSEGESDAEAESKEEHGPEACDAAKISTTTSEEPCRDKGSPAVKAHLFAAERPRDSGRLDKASPDSRHSPATISSSTRGLGAEERRSPVREGTAPAKVEEARALPGKEAFAPLTVQTDAAAAHLAQGPLPGLGFAPGLAGQQFFNGHPLFLHPSQFAMGGAFSSMAAAGMGPLLATVSGASTGVSGLDSTAMASAAAAQGLSGASAATLPFHLQQHVLASQGLAMSPFGSLFPYPYTYMAAAAAASSAAASSSVHRHPFLNLNTMRPRLRYSPYSIPVPVPDGSSLLTTALPSMAAAAGPLDGKVAALAASPASVAVDSGSELNSRSSTLSSSSMSLSPKLCAEKEAATSELQSIQRLVSGLEAKPDRSRSASP
B4: CREB3L2, Q70SY1 (protein)
chain: MEVLESGEQGVLQWDRKLSELSEPGDGEALMYHTHFSELLDEFSQNVLGQLLNDPFLSEKSVSMEVEPSPTSPAPLIQAEHSYSLCEEPRAQSPFTHITTSDSFNDDEVESEKWYLSTDFPSTSIKTEPVTDEPPPGLVPSVTLTITAISTPLEKEEPPLEMNTGVDSSCQTIIPKIKLEPHEVDQFLNFSPKEAPVDHLHLPPTPPSSHGSDSEGSLSPNPRLHPFSLPQTHSPSRAAPRAPSALSSSPLLTAPHKLQGSGPLVLTEEEKRTLIAEGYPIPTKLPLSKSEEKALKKIRRKIKNKISAQESRRKKKEYMDSLEKKVESCSTENLELRKKVEVLENTNRTLLQQLQKLQTLVMGKVSRTCKLAGTQTGTCLMVVVLCFAVAFGSFFQGYGPYPSATKMALPSQHSLQEPYTASVVRSRNLLIYEEHSPPEESSSPGSAGELGGWDRGSSLLRVSGLESRPDVDLPHFIISNETSLEKSVLLELQQHLVSAKLEGNETLKVVELDRRVNTTF
B5: ANKRD30A, Q9BXX3 (protein)
chain: MEEISAAAVKVVPGPERPSPFSQLVYTSNDSYIVHSGDLRKIHKAASRGQVRKLEKMTKRKKTINLNIQDAQKRTALHWACVNGHEEVVTFLVDRKCQLDVLDGEHRTPLMKALQCHQEACANILIDSGADINLVDVYGNTALHYAVYSEILSVVAKLLSHGAVIEVHNKASLTPLLLSITKRSEQIVEFLLIKNANANAVNKYKCTALMLAVCHGSSEIVGMLLQQNVDVFAADICGVTAEHYAVTCGFHHIHEQIMEYIRKLSKNHQNTNPEGTSAGTPDEAAPLAERTPDTAESLVEKTPDEAAPLVERTPDTAESLVEKTPDEAASLVEGTSDKIQCLEKATSGKFEQSAEETPREITSPAKETSEKFTWPAKGRPRKIAWEKKEDTPREIMSPAKETSEKFTWAAKGRPRKIAWEKKETPVKTGCVARVTSNKTKVLEKGRSKMIACPTKESSTKASANDQRFPSESKQEEDEEYSCDSRSLFESSAKIQVCIPESIYQKVMEINREVEEPPKKPSAFKPAIEMQNSVPNKAFELKNEQTLRADPMFPPESKQKDYEENSWDSESLCETVSQKDVCLPKATHQKEIDKINGKLEESPNKDGLLKATCGMKVSIPTKALELKDMQTFKAEPPGKPSAFEPATEMQKSVPNKALELKNEQTLRADEILPSESKQKDYEENSWDTESLCETVSQKDVCLPKAAHQKEIDKINGKLEGSPVKDGLLKANCGMKVSIPTKALELMDMQTFKAEPPEKPSAFEPAIEMQKSVPNKALELKNEQTLRADEILPSESKQKDYEESSWDSESLCETVSQKDVCLPKATHQKEIDKINGKLEESPDNDGFLKAPCRMKVSIPTKALELMDMQTFKAEPPEKPSAFEPAIEMQKSVPNKALELKNEQTLRADQMFPSESKQKKVEENSWDSESLRETVSQKDVCVPKATHQKEMDKISGKLEDSTSLSKILDTVHSCERARELQKDHCEQRTGKMEQMKKKFCVLKKKLSEAKEIKSQLENQKVKWEQELCSVRLTLNQEEEKRRNADILNEKIREELGRIEEQHRKELEVKQQLEQALRIQDIELKSVESNLNQVSHTHENENYLLHENCMLKKEIAMLKLEIATLKHQYQEKENKYFEDIKILKEKNAELQMTLKLKEESLTKRASQYSGQLKVLIAENTMLTSKLKEKQDKEILEAEIESHHPRLASAVQDHDQIVTSRKSQEPAFHIAGDACLQRKMNVDVSSTIYNNEVLHQPLSEAQRKSKSLKINLNYAGDALRENTLVSEHAQRDQRETQCQMKEAEHMYQNEQDNVNKHTEQQESLDQKLFQLQSKNMWLQQQLVHAHKKADNKSKITIDIHFLERKMQHHLLKEKNEEIFNYNNHLKNRIYQYEKEKAETENS
B6: ZSCAN29, Q8IWY8 (protein)
chain: MMAKSALRENGTNSETFRQRFRRFHYQEVAGPREAFSQLWELCCRWLRPEVRTKEQIVELLVLEQFLTVLPGEIQNWVQEQCPENGEEAVTLVEDLEREPGRPRSSVTVSVKGQEVRLEKMTPPKSSQELLSVRQESVEPQPRGVPKKERARSPDLGPQEQMNPKEKLKPFQRSGLPFPKSGVVSRLEQGEPWIPDLLGSKEKELPSGSHIGDRRVHADLLPSKKDRRSWVEQDHWSFEDEKVAGVHWGYEETRTLLAILSQTEFYEALRNCHRNSQVYGAVAERLREYGFLRTLEQCRTKFKGLQKSYRKVKSGHPPETCPFFEEMEALMSAQVIALPSNGLEAAASHSGLVGSDAETEEPGQRGWQHEEGAEEAVAQESDSDDMDLEATPQDPNSAAPVVFRSPGGVHWGYEETKTYLAILSETQFYEALRNCHRNSQLYGAVAERLWEYGFLRTPEQCRTKFKSLQTSYRKVKNGQAPETCPFFEEMDALVSVRVAAPPNDGQEETASCPVQGTSEAEAQKQAEEADEATEEDSDDDEEDTEIPPGAVITRAPVLFQSPRGFEAGFENEDNSKRDISEEVQLHRTLLARSERKIPRYLHQGKGNESDCRSGRQWAKTSGEKRGKLTLPEKSLSEVLSQQRPCLGERPYKYLKYSKSFGPNSLLMHQVSHQVENPYKCADCGKSFSRSARLIRHRRIHTGEKPYKCLDCGKSFRDSSNFITHRRIHTGEKPYQCGECGKCFNQSSSLIIHQRTHTGEKPYQCEECGKSFNNSSHFSAHRRIHTGERPHVCPDCGKSFSKSSDLRAHHRTHTGEKPYGCHDCGKCFSKSSALNKHGEIHAREKLLTQSAPK

What follows are binders tested against nucleoprotein N of Crimean-Congo hemorrhagic fever virus (assay: AlphaScreen luminescence signal relative to Venus negative control (fold); higher = stronger binding to CCHFV N).
Procedure: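 AlphaScreen binding of cell-free made, FLAG-GST-tagged human transcription factors and regulators (crude translation products) to biotinylated N protein; signal as fold of the FLAG-GST-Venus control. One pass.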
B1 showed an AlphaScreen luminescence signal of 1.21. For B2, the AlphaScreen luminescence signal was 1.21. With B3 the AlphaScreen luminescence signal was 3.77. In the case of B4, the AlphaScreen luminescence signal is reported as 3.02. B5 gave an AlphaScreen luminescence signal of 2.74. Work on B6 yielded an AlphaScreen luminescence signal of 4.09.

From the supplement of paper PMC12423691
